# Source: patent US9433687B2, “Anti-Notch3 antibodies and antibody-drug conjugates” (Pfizer Inc., priority 2012, dated 2016)
# Several values for one entry are separate records, joined by “and”; a condition that tells them apart may be missing. Equal values may be shown once.
# What was measured:
# HCC2429 (lung cancer) = assay: In vitro cytotoxicity (MTS), HCC2429; format: cell-based, human; settings: Table 14; two individual repeats; LP = lacked potency
# Experimental: (§1) The effects of anti-Notch3 ADCs were assessed on 1) cell lines endogenously expressing Notch3 protein: HCC2429 (lung cancer), OVCAR3 (ovarian cancer) and MDA-MB-468 (breast cancer), 2) cell lines engineered to over-express full length human Notch3 protein: MDA-MB-468/hNotch3 and U2OS/hNotch3, and 3) a negative control cell line (SW900) using an MTS cellular viability indicator (Promega, Madison, Wis.). These cell lines were cultured with increasing concentrations of anti-Notch3 ADCs comprising rat-human chimeric anti-Notch3 antibodies, ch28 and ch75, and humanized anti-Notch3 antibodies, hu28 and hu75, conjugated to various linker-payload combinations of the present invention. As a specificity control for the anti-Notch3-ADCs, non-targeted control-ADCs (huNeg8.8-ADCs or ch2H6-ADCs) were also tested on the same cell lines. After four days, viability of each culture was assessed. IC50 values were calculated by logistic non-linear regression, model #203 with XL fit v4.2 (IDBS, Guildford, Surry, UK) and presented as ng Ab/mL. The drug antibody ratio (DAR) is also provided.
# (§2) This process generated the anti-Notch3 cysteine mutant ADCs: hu28-(L443C)-vc0101 and hu28-(L443C/κK183C)-vc0101. The activity of the anti-Notch3 cysteine mutant ADCs were assessed on cell lines endogenously expressing Notch3 protein: HCC2429 (lung cancer) and OVCAR3 (ovarian cancer) using an MTS cellular viability indicator as described in previous Examples.
# OVCAR3 (ovarian cancer) = assay: In vitro cytotoxicity (MTS), OVCAR3; format: cell-based, human; settings: Table 14; LP = lacked potency
# Experimental: as §1, §2
# MDA-MB-468/hNotch3 [1] = target: T1, MDA-MB-468/hNotch3 (Homo sapiens, UniProt Q9UM47); assay: In vitro cytotoxicity (MTS), MDA-MB-468/hNotch3; format: cell-based; settings: Table 14; two individual repeats; LP = lacked potency
# T1 construct: cell lines engineered to over-express full length human Notch3 protein: MDA-MB-468/hNotch3 and U2OS/hNotch3; expressed in transfected cells; host or cells: MDA-MB-468
# Experimental: as §1
# OVCAR3 = target: T2, OVCAR3 (Homo sapiens, UniProt Q9UM47); assay: Cytotoxicity (MTS) after control or Notch3 siRNA, OVCAR3; format: cell-based; settings: 96 hours
# T2 construct: Notch3 endogenously expressing cells MDA-MB-468, HCC2429 and OVCAR3; endogenous in cells; host or cells: OVCAR3
# Experimental: (§3) Notch3 knockdown with siRNAs was used to confirm that the in vitro cytotoxicity of anti-Notch3 ADCs was dependent on the expression of the Notch3 protein. siRNA transfections were generated using ON-TARGET plus SMART pool human Notch3 (L-011093-00), ON-TARGET plus Control Non-Targeting pool (D-001810-10) (Thermo Scientific Dharmacon) and Lipofectamine RNAiMAX Reagent (Invitrogen). Two to 2.5×10^6 cells of HCC2429, OVCAR3 and MDA-MB-468/hNotch3 cells were plated in 10 cm dishes in growth medium without antibiotics the day before transfection. The next day fresh medium without antibiotics was added. The siRNAs and the Lipofectamine RNAiMAX were diluted in OPTI-MEM media and used as per the manufacturer's specifications. Each of the cell lines was transfected with control and Notch3 siRNAs. The cells were incubated with the transfection mixture for 24 hours in a humidified, 37° C., 5% CO2 incubator. After 24 hours, cells were trypsinized and plated for assessment using MTS cellular viability indicator (Promega, Madison, Wis.).
# (§4) Depending on the cell line, cells were then seeded at a density of 2,500 to 5,000 cells per well 24 hours before treatment. Cells were treated with 3-fold serially diluted humanized anti-Notch3 ADCs in triplicates at 10 concentrations (range 0-30 μg Ab/ml). […] For experiments with 2 individual repeats, average IC50 values were calculated along with standard error of the mean (S.E.M.). Western blot analysis on extracts prepared from control and Notch3 siRNA-treated cells was performed to confirm that Notch3 knockdown occurred for up to 144 hours (data not shown). Cell lines that expressed Notch3 (herein termed control siRNA) or had reduced Notch3 expression after siRNA knockdown (herein termed Notch3 siRNA) were cultured with increasing concentrations of humanized anti Notch3 ADCs. As a specificity control for the anti-Notch3 ADCs, non-targeted control-ADCs (huNeg8.8-ADCs) were also tested on the same cell lines. After four days, viability of each culture was assessed. IC50 values were calculated by logistic non-linear regression, model #203 with XL fit v4.2 (IDBS, Guildford, Surry, UK) and presented as ng Ab/mL. The drug antibody ratio (DAR) is also provided.
# MDA-MB-468/hNotch3 [2] = target: T1, MDA-MB-468/hNotch3; assay: Cytotoxicity (MTS) after control or Notch3 siRNA, MDA-MB-468/hNotch3; format: cell-based; settings: 96 hours, LP = lacked potency
# Experimental: as §3
# as §4, with “As a specificity control for the anti-Notch3 ADCs, non-targeted control-ADCs (huNeg8.8-ADCs) were also tested on the same cell lines.” left out, “The drug antibody ratio (DAR) is also provided.” left out
# HCC2429 lung xenografts = assay: HCC2429 lung xenograft model (ADCs); format: in vivo, mouse
# Experimental: Similar in vivo experiments were performed with the HCC2429 lung cancer cell line as described above. To generate xenografts, nude (Nu/Nu) female mice were implanted subcutaneously with 3.5×10^6 HCC2429 cells in 50% Matrigel (BD Biosciences).
# The HCC2429 lung model was also dosed intravenously Q4d×4 with PBS vehicle, rat-human chimeric anti-Notch3 ADCs and control huNeg-8.8 ADCs, at a dose of 5 mg/kg as provided in FIG. 16A.
# T1 sequence (Q9UM47 40-2321): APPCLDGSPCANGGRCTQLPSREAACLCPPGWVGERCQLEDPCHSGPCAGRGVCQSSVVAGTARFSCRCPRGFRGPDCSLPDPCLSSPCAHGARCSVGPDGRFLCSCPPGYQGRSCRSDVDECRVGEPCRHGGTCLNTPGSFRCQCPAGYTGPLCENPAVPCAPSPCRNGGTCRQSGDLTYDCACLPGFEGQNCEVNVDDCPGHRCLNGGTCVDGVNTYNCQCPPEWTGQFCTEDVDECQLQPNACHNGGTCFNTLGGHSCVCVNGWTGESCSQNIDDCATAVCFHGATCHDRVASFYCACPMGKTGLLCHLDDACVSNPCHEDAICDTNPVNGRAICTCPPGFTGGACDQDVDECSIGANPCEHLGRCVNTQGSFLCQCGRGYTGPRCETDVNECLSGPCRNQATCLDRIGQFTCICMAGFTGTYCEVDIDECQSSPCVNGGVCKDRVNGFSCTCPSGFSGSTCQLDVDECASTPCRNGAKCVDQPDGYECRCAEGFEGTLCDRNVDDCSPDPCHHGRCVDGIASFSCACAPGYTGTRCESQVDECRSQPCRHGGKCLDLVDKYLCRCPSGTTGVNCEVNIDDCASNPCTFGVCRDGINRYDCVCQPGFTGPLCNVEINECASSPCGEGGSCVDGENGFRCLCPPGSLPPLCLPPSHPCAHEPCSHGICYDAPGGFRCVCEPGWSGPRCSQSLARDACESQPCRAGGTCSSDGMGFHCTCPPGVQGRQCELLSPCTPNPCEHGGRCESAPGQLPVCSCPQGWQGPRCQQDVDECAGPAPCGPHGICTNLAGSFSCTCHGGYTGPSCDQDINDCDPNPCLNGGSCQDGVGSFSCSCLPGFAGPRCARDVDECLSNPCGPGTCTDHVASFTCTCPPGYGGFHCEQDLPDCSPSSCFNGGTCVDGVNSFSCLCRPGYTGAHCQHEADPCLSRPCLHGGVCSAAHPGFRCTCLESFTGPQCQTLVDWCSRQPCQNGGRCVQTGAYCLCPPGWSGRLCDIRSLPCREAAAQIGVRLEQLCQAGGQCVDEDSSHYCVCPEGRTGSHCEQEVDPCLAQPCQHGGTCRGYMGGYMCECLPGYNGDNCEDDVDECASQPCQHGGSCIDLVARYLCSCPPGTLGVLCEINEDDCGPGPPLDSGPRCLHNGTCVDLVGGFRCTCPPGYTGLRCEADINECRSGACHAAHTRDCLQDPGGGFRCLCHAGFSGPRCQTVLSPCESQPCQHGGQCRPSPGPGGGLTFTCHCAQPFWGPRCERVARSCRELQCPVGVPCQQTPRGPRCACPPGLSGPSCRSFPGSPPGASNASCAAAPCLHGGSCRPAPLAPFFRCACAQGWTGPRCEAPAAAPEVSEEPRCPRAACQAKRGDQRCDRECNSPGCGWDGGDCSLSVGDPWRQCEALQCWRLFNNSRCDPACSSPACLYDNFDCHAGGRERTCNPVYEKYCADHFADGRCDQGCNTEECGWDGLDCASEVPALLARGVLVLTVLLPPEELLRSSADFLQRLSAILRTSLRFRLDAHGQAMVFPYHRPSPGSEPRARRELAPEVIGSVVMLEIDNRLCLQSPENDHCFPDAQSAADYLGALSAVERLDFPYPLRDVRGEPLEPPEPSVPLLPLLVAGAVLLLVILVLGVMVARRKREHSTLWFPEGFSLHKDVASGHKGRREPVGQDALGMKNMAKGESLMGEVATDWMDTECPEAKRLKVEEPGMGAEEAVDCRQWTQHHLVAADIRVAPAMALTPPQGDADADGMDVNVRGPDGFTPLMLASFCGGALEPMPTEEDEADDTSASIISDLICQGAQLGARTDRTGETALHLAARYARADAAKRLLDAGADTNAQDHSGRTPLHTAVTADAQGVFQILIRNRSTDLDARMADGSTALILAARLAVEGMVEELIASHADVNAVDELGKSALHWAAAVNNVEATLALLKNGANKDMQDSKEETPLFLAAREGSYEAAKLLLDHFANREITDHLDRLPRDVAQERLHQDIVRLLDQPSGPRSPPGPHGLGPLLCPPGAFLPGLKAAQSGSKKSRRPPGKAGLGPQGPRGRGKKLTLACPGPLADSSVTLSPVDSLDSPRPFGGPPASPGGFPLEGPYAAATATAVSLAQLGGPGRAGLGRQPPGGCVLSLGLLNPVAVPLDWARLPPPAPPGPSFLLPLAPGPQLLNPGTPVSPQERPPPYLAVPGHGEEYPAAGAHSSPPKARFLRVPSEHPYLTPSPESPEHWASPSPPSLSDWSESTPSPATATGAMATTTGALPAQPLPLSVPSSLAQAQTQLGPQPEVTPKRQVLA
# T2 sequence (Q9UM47 40-2321): as above
molecule,measurement,setting,value
hu28-vc0101: hu28 conjugated to vc0101 linker-payload (conjugate) heavy: EVQLVESGGGLVQPGGSLRLSCAASGFTFRDYGMTWVRQAPGKGLEWVAYISSGSNYIYYAEAVKGRFTISRDNAKNSLYLQMNSLRAEDTAVYYCARRGPFVLDAWGQGTLVTVSS[letters of human IgG1 constant region omitted] light: DIQMTQSPSSLSASVGDRVTITCKASQSINRYLHWYQQKPGKAPKLLIYNANGLQTGVPSRFSGSGSGTDFTLTISSLQPEDFATYYCLQHNTWPDTFGGGTKVEIKRTVAAPSVFIFPPSDEQLKSGTASVVCLLNNFYPREAKVQWKVDNALQSGNSQESVTEQDSKDSTYSLSSTLTLSKADYEKHKVYACEVTHQGLSSPVTKSFNRGEC,"IC50 (ng Ab/mL), HCC2429",HCC2429 (lung cancer),473 ng Ab/mL and 2940 ng Ab/mL
same,"IC50 (ng Ab/mL), OVCAR3",OVCAR3 (ovarian cancer),306 ng Ab/mL
same,"IC50 (ng Ab/mL), MDA-MB-468/hNotch3",MDA-MB-468/hNotch3 [1],3.2 ng Ab/mL and 3 ng Ab/mL
same,"IC50 (ng Ab/mL) ± S.E.M., OVCAR3 Control siRNA",OVCAR3; Control siRNA,684 ± 183 ng Ab/mL
same,"IC50 (ng Ab/mL) ± S.E.M., OVCAR3 Notch3 siRNA",OVCAR3; Notch3 siRNA knockdown,1994 ± 262 ng Ab/mL
same,"IC50 (ng Ab/mL) ± S.E.M., MDA-MB 468/hNotch3 Control siRNA",MDA-MB-468/hNotch3 [2]; Control siRNA,3.0 ng Ab/mL
same,"IC50 (ng Ab/mL) ± S.E.M., MDA-MB 468/hNotch3 Notch3 siRNA",MDA-MB-468/hNotch3 [2]; Notch3 siRNA knockdown,3340 ng Ab/mL
same,tumor volume,"HCC2429 lung xenografts; Day 1, 0.3 mg/kg iv Q4dx4",528 mm^3
same,tumor volume,"HCC2429 lung xenografts; Day 1, 1 mg/kg iv Q4dx4",532 mm^3
same,tumor volume,"HCC2429 lung xenografts; Day 1, 3 mg/kg iv Q4dx4",548 mm^3
same,tumor volume,"HCC2429 lung xenografts; Day 3, 0.3 mg/kg iv Q4dx4",733 mm^3
same,tumor volume,"HCC2429 lung xenografts; Day 3, 1 mg/kg iv Q4dx4",757 mm^3
same,tumor volume,"HCC2429 lung xenografts; Day 3, 3 mg/kg iv Q4dx4",606 mm^3
same,tumor volume,"HCC2429 lung xenografts; Day 6, 0.3 mg/kg iv Q4dx4",1112 mm^3
same,tumor volume,"HCC2429 lung xenografts; Day 6, 1 mg/kg iv Q4dx4",1095 mm^3
same,tumor volume,"HCC2429 lung xenografts; Day 6, 3 mg/kg iv Q4dx4",723 mm^3
same,tumor volume,"HCC2429 lung xenografts; Day 8, 0.3 mg/kg iv Q4dx4",1617 mm^3
same,tumor volume,"HCC2429 lung xenografts; Day 8, 1 mg/kg iv Q4dx4",1324 mm^3
same,tumor volume,"HCC2429 lung xenografts; Day 8, 3 mg/kg iv Q4dx4",696 mm^3
same,tumor volume,"HCC2429 lung xenografts; Day 10, 0.3 mg/kg iv Q4dx4",2027 mm^3
same,tumor volume,"HCC2429 lung xenografts; Day 10, 1 mg/kg iv Q4dx4",1606 mm^3
same,tumor volume,"HCC2429 lung xenografts; Day 10, 3 mg/kg iv Q4dx4",620 mm^3
same,tumor volume,"HCC2429 lung xenografts; Day 13, 0.3 mg/kg iv Q4dx4",2642 mm^3
same,tumor volume,"HCC2429 lung xenografts; Day 13, 1 mg/kg iv Q4dx4",1717 mm^3
same,tumor volume,"HCC2429 lung xenografts; Day 13, 3 mg/kg iv Q4dx4",543 mm^3
same,tumor volume,"HCC2429 lung xenografts; Day 15, 1 mg/kg iv Q4dx4",1865 mm^3
same,tumor volume,"HCC2429 lung xenografts; Day 15, 3 mg/kg iv Q4dx4",512 mm^3
same,tumor volume,"HCC2429 lung xenografts; Day 17, 1 mg/kg iv Q4dx4",2228 mm^3
same,tumor volume,"HCC2429 lung xenografts; Day 17, 3 mg/kg iv Q4dx4",442 mm^3
same,tumor volume,"HCC2429 lung xenografts; Day 20, 3 mg/kg iv Q4dx4",428 mm^3
same,tumor volume,"HCC2429 lung xenografts; Day 23, 3 mg/kg iv Q4dx4",405 mm^3
same,tumor volume,"HCC2429 lung xenografts; Day 27, 3 mg/kg iv Q4dx4",422 mm^3
same,tumor volume,"HCC2429 lung xenografts; Day 30, 3 mg/kg iv Q4dx4",394 mm^3
same,tumor volume,"HCC2429 lung xenografts; Day 34, 3 mg/kg iv Q4dx4",505 mm^3
same,tumor volume,"HCC2429 lung xenografts; Day 37, 3 mg/kg iv Q4dx4",606 mm^3
same,tumor volume,"HCC2429 lung xenografts; Day 41, 3 mg/kg iv Q4dx4",750 mm^3
same,tumor volume,"HCC2429 lung xenografts; Day 45, 3 mg/kg iv Q4dx4",872 mm^3
same,tumor volume,"HCC2429 lung xenografts; Day 49, 3 mg/kg iv Q4dx4",558 mm^3
same,tumor volume,"HCC2429 lung xenografts; Day 52, 3 mg/kg iv Q4dx4",571 mm^3
same,tumor volume,"HCC2429 lung xenografts; Day 56, 3 mg/kg iv Q4dx4",704 mm^3
same,tumor volume,"HCC2429 lung xenografts; Day -1, 0.3 mg/kg iv Q4dx4",246 mm^3
same,tumor volume,"HCC2429 lung xenografts; Day -1, 1 mg/kg iv Q4dx4",246 mm^3
same,tumor volume,"HCC2429 lung xenografts; Day -1, 3 mg/kg iv Q4dx4",245 mm^3
